Results taken from the supplement of paper PMC3334620.
The full ranking holds about 33,000 sequences; the median of “E-score (-0.5 to 0.5)” is about -0.016, and the highest 2% start at about 0.31. Some of the results follow.

Each sequence was assayed against Cst6 (UniProt P40535) (assay: PBM E-score (8-mer binding enrichment) (E-score (-0.5 to 0.5)); higher = stronger / more preferred TF binding; most listed sequences are background and not binding sites). Settings: protein concentration: 200 nM; construct: GST-DNA-binding domain.
Procedure, shortened: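 GST-tagged yeast TFs (full-length or DNA-binding domain) were made by PURExpress in vitro transcription/translation and applied at about 100-200 nM to universal all-10-mer Agilent arrays. The arrays were made double-stranded by primer extension, on fresh or once-stripped slides. Bound protein was detected with fluorescent anti-GST, and scans were normalised with masliner. Each ungapped eight-base word, pooled with its reverse complement, received an E-score (modified Wilcoxon-Mann-Whitney statistic) from the Universal PBM Analysis Suite.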
With AACCAATA the “PBM E-score” value was 0.195. With AAGTGTTG the “PBM E-score” value was 0.214. In the case of AACGAACC, the “PBM E-score” value is reported as 0.208. In the case of TACAGTCA, the “PBM E-score” value is reported as 0.139. ACGAAGAC was tested, and the “PBM E-score” value was -0.0333. In the case of CGCTCTGA, the “PBM E-score” value is reported as -0.0554. CCCCGGTC was tested, and the “PBM E-score” value was -0.303. In the case of ACCGTTCG, the “PBM E-score” value is reported as 0.0621. In the case of CATCAGCA, the “PBM E-score” value is reported as 0.177. With CGTGGCTA the “PBM E-score” value was -0.0776. In the case of GATCCATC, the “PBM E-score” value is reported as -0.0701. CATTGGGA was tested, and the “PBM E-score” value was -0.116. AATCAATA was tested, and the “PBM E-score” value was 0.206. For GGCTCCAC, the “PBM E-score” value was -0.228. With GCGAGGAA the “PBM E-score” value was -0.0544. TATGTTGA was tested, and the “PBM E-score” value was 0.127. With CCAGGACA the “PBM E-score” value was -0.283. In the case of GACGTCCA, the “PBM E-score” value is reported as 0.276. With GATGGTCC the “PBM E-score” value was -0.184. In the case of ACGCAATA, the “PBM E-score” value is reported as 0.349. With GCTCGAAC the “PBM E-score” value was 0.00579. AGTCAAGG was tested, and the “PBM E-score” value was -0.108. For ACACTTAC, the “PBM E-score” value was 0.188. In the case of CCCCGAGG, the “PBM E-score” value is reported as -0.33. CGGTTAGA was tested, and the “PBM E-score” value was -0.189. AACGCCCG was tested, and the “PBM E-score” value was -0.0175. CATGAAGC was tested, and the “PBM E-score” value was -0.187. In the case of ACATTGCA, the “PBM E-score” value is reported as -0.0281. In the case of ACGTTCTG, the “PBM E-score” value is reported as -0.00291. In the case of ATCCGCAT, the “PBM E-score” value is reported as 0.112. CTAGAACC was tested, and the “PBM E-score” value was -0.127. With GGGCCGAA the “PBM E-score” value was -0.206. In the case of AAACTTGT, the “PBM E-score” value is reported as 0.174. In the case of CGATCTCA, the “PBM E-score” value is reported as -0.0707. In the case of ATAAAGCG, the “PBM E-score” value is reported as 0.165. For AGTTCGCG, the “PBM E-score” value was 0.0186. With AAGCAACA the “PBM E-score” value was 0.0538. In the case of CAGGGTGC, the “PBM E-score” value is reported as -0.327. For CCGTCCGC, the “PBM E-score” value was -0.184. GATGAGAA was tested, and the “PBM E-score” value was 0.0108. In the case of GTACCATA, the “PBM E-score” value is reported as -0.00054. For AGAGGTTG, the “PBM E-score” value was -0.193. AAATAGAC was tested, and the “PBM E-score” value was 0.0409. For CGTACGTC, the “PBM E-score” value was 0.31. With GTCCAAAC the “PBM E-score” value was -0.0363. With AACAGAGG the “PBM E-score” value was -0.0721. For ACTCACAC, the “PBM E-score” value was -0.127. AGGACCCG was tested, and the “PBM E-score” value was -0.266. With ATTTCGTG the “PBM E-score” value was 0.127. With GAACCTTA the “PBM E-score” value was -0.04. AGTAATGG was tested, and the “PBM E-score” value was 0.0119. ATGGTTGG was tested, and the “PBM E-score” value was 0.0505. With AAAACCGT the “PBM E-score” value was 0.143. With AATCGGAA the “PBM E-score” value was -0.00349. In the case of AGCTTCCT, the “PBM E-score” value is reported as -0.108. In the case of GGGGAGGA, the “PBM E-score” value is reported as -0.23. With CTTCTACA the “PBM E-score” value was -0.0622. With CGCCAACA the “PBM E-score” value was -0.0263. CTTGTAAA was tested, and the “PBM E-score” value was 0.155. In the case of GCAGGGAA, the “PBM E-score” value is reported as -0.101. ATGTGAAA was tested, and the “PBM E-score” value was 0.15. ACCACCAA was tested, and the “PBM E-score” value was -0.0877. For CTCAGTGA, the “PBM E-score” value was 0.0623. In the case of AAGTGCTC, the “PBM E-score” value is reported as -0.0422. With GCTGTAGA the “PBM E-score” value was -0.0867. In the case of ACAATTCT, the “PBM E-score” value is reported as 0.168. With ATGATCAG the “PBM E-score” value was 0.045. With GAGTATCA the “PBM E-score” value was -0.0698. With TCGCATCA the “PBM E-score” value was 0.267. In the case of CAGTAGTA, the “PBM E-score” value is reported as -0.0925. GGGTTCAC was tested, and the “PBM E-score” value was -0.0513. For ATGCTGTA, the “PBM E-score” value was -0.0705. With GAGTATCC the “PBM E-score” value was -0.221. CATAGACC was tested, and the “PBM E-score” value was -0.13. GGGATCTA was tested, and the “PBM E-score” value was -0.123. CTAACAGC was tested, and the “PBM E-score” value was -0.00671. With ATAGCCGA the “PBM E-score” value was 0.115. TCGTCCCA was tested, and the “PBM E-score” value was -0.0394. For AACGCAGT, the “PBM E-score” value was -0.129. ATTTGTAA was tested, and the “PBM E-score” value was 0.239. In the case of CAGCCCTA, the “PBM E-score” value is reported as 0.0115. With AATATATA the “PBM E-score” value was 0.239. With CGATATAC the “PBM E-score” value was -0.0576. With GGTCCCTA the “PBM E-score” value was -0.126. ACCGGAGA was tested, and the “PBM E-score” value was -0.155. For GCCCTCAA, the “PBM E-score” value was -0.213. CTGTCGTA was tested, and the “PBM E-score” value was 0.116. With CTCGCCGC the “PBM E-score” value was 0.00702. In the case of CGTAGAGA, the “PBM E-score” value is reported as -0.026. AACCCGAG was tested, and the “PBM E-score” value was -0.153. In the case of CTCTAGCC, the “PBM E-score” value is reported as -0.102. ATCCAGGC was tested, and the “PBM E-score” value was -0.18. In the case of GGAAGCCC, the “PBM E-score” value is reported as -0.331. In the case of CGCGTTGA, the “PBM E-score” value is reported as 0.143. With CCGAAGAC the “PBM E-score” value was -0.079. In the case of GCATCGGC, the “PBM E-score” value is reported as -0.0851. In the case of GGCGGAGA, the “PBM E-score” value is reported as -0.0758. In the case of GTCTAAGA, the “PBM E-score” value is reported as 0.102. For GTAGGTTA, the “PBM E-score” value was 0.0321. With AGGAGACA the “PBM E-score” value was -0.0509. With CTGGGTTC the “PBM E-score” value was -0.123. GTAAGAGA was tested, and the “PBM E-score” value was 0.0594. With ACCTTTAT the “PBM E-score” value was -0.0669. GCGTACCC was tested, and the “PBM E-score” value was -0.215. CAATTCGC was tested, and the “PBM E-score” value was 0.14. CACTGCGA was tested, and the “PBM E-score” value was -0.0986. In the case of ACGTGCTA, the “PBM E-score” value is reported as 0.116. In the case of CTTCTCAA, the “PBM E-score” value is reported as -0.0253. In the case of GTAATGAC, the “PBM E-score” value is reported as 0.377. With GTTTTACA the “PBM E-score” value was -0.00306. With CTCTATTC the “PBM E-score” value was -0.157. In the case of ATCCACGC, the “PBM E-score” value is reported as -0.181. With TGTTTGAA the “PBM E-score” value was 0.108. For AGAATTCG, the “PBM E-score” value was 0.0535. With GGGGGTCA the “PBM E-score” value was -0.424. With ACGTGGTG the “PBM E-score” value was 0.0475. AGTTTTAC was tested, and the “PBM E-score” value was 0.0527. For CTTGACCA, the “PBM E-score” value was -0.223. CGCGTTGC was tested, and the “PBM E-score” value was 0.0316. ATGGCACC was tested, and the “PBM E-score” value was -0.107. For CGGGTGCC, the “PBM E-score” value was 0.042. ACGCATCA was tested, and the “PBM E-score” value was 0.236. CAGTTGAA was tested, and the “PBM E-score” value was -0.0554. For ACTGTAAC, the “PBM E-score” value was 0.0568. For AAGTAGCG, the “PBM E-score” value was -0.0376. For CGGTCAAG, the “PBM E-score” value was -0.175. For GGCCCCGA, the “PBM E-score” value was -0.254. For GAACCAGA, the “PBM E-score” value was -0.177. For AGATAGAG, the “PBM E-score” value was 0.00099. CAAGTTCC was tested, and the “PBM E-score” value was -0.198. For AAACACTA, the “PBM E-score” value was 0.214. For GTATACCA, the “PBM E-score” value was -0.051. For AAAAGGGA, the “PBM E-score” value was -0.0441. In the case of AAAAAGAT, the “PBM E-score” value is reported as 0.168. For CTCCCCGC, the “PBM E-score” value was 0.0808. For AGGAAGTA, the “PBM E-score” value was -0.215. In the case of AACATGCG, the “PBM E-score” value is reported as 0.0771. In the case of CCTAACGA, the “PBM E-score” value is reported as 0.012. With GTTCCGTA the “PBM E-score” value was 0.0416. For ACTAGAAG, the “PBM E-score” value was -0.0292. AGGATGCG was tested, and the “PBM E-score” value was -0.111. For CGGCTAAA, the “PBM E-score” value was 0.252. In the case of GACGCGTC, the “PBM E-score” value is reported as 0.151. For TGGAAGAA, the “PBM E-score” value was 0.0374. ATCATGCC was tested, and the “PBM E-score” value was 0.162. In the case of ACTCTACC, the “PBM E-score” value is reported as -0.0495. In the case of GGTGGTAA, the “PBM E-score” value is reported as 0.02. With AACCCAGG the “PBM E-score” value was -0.205. For AGTCGGTA, the “PBM E-score” value was -0.15. ATTGCGAA was tested, and the “PBM E-score” value was 0.0433. In the case of GTCAAGTA, the “PBM E-score” value is reported as -0.054. AAAGAGTG was tested, and the “PBM E-score” value was -0.0454. With CACTGCGC the “PBM E-score” value was 0.0486. In the case of GTCCACTA, the “PBM E-score” value is reported as -0.108. AGTAAAAG was tested, and the “PBM E-score” value was 0.0899. In the case of CGAAAGTC, the “PBM E-score” value is reported as -0.0417. CAAAAGTG was tested, and the “PBM E-score” value was 0.182. With CGCTGTCC the “PBM E-score” value was -0.129. GAGACTCC was tested, and the “PBM E-score” value was -0.162. In the case of AGGAGAGA, the “PBM E-score” value is reported as -0.0545. For AGCCCGGC, the “PBM E-score” value was -0.107. AAAGTACT was tested, and the “PBM E-score” value was -0.0101. CCCACAGC was tested, and the “PBM E-score” value was -0.17. For CATCCACC, the “PBM E-score” value was 0.00989. For GTAAGAAA, the “PBM E-score” value was 0.181. In the case of CCAGACCG, the “PBM E-score” value is reported as -0.0843. For CATAACCA, the “PBM E-score” value was 0.0109. In the case of GTGAGTCA, the “PBM E-score” value is reported as 0.137. For ATTAGTGA, the “PBM E-score” value was 0.175. For AACGAGTC, the “PBM E-score” value was -0.0864. In the case of AGCATTGG, the “PBM E-score” value is reported as -0.129. In the case of AGCCTCGC, the “PBM E-score” value is reported as -0.0857.
